This is one part of the list.
test system: PfHDP1 homeodomain (GST-tagged); assay: gcPBM binding intensity (ln(normalized median fluorescence intensity)); higher = stronger DNA binding
Procedure, shortened: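 After 1 h on an Agilent 4 × 180k array of primer-extended double-stranded 36-bp intergenic genomic probes and negative controls, bound GST-tagged P. falciparum DNA-binding domains were detected with Alexa488 anti-GST antibody and scanned at 488 nm. The domains had been expressed in E. coli, and binding took place in 1× PBS with 1% milk, 0.2 mg/ml BSA, 0.5% salmon testes DNA and 0.03% Triton X-100. Binding intensity is the highest Masliner-normalised natural-log median intensity across replicate spots of either probe orientation.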

Sequence | gcPBM binding intensity (ln)
AATACATGCTAAAAACGTACACGTATAAAATTATAT [XGTACX_site3169] | 6.55
TTACATTTTTGAAATAGATACATACACGTGTATGTA [CACACA_negctrl_site1311] | 6.49
GACATTAAAATGAAATATACATATATATGTATATAT [TGCATGCA_negctrl_site601] | 6.61
CATATTTGTATATGCACACATAAATTTTTCCATTTC [CACACA_site3467] | 10.2
AAATTTTTAAACAGCACACATAAATATAATATATAT [CACACA_site2208] | 6.73
AAAATTAACCGTAACACACACACATATATATATATA [CACACA_site3964] | 9.17
TATATGTTTACTTAATGTACTTACATTTTTATAACA [XGTACX_site1100] | 6.41
AAACAAAAAAACTACAGTACTTTTTTCAATTCCCCT [XGTACX_site7541] | 6.58
TTATTAATTTTTATTTTTAAATCACAAAAGATATAA [CACACA_negctrl_site787] | 5.82
ACATAAATAATAAAAACACACATATGTACTTATATA [CACACA_site8581] | 6.38
AATACTTTTTATTTAGTGCATAAGAAAATATAAATC [GTGCAC_site9875] | 10.3
TATAAAATATGTATGAGGAATAAAATTAAAAAAAAA [TGCATGCA_negctrl_site178] | 6.09
AAAAAAAAAAATTCGGTGCAATGTAATTAATGTAAA [GTGCAC_site9588] | 9.83
TCTTGTATACGGCATGCATGTTAGCACATACGGACA [TGCATGCA_site146] | 6.69
TTTTTAAAACCTTACATACACACAAATATATATATA [CACACA_site678] | 8.4
TGAATTCATAGCAGTTGTACATTGCATGAAGAAACG [XGTACX_site3312] | 6.71
TGTTCCGAAGGTTGTACACACATAGAAATATACATA [CACACA_site3874] | 6.65
AATATAAGAATATATACACACATAAATACATACATA [CACACA_site4128] | 6.62
ATATATATATATATTACACACATGTGCAATTAAAAT [CACACA_site1778] | 10.7
TGGTAATACACATACACACACACATACACATATATA [CACACA_site7312] | 8.22
AATTGAAAAATCAGCACACACACAAATACATACATA [CACACA_site3232] | 6.95
GCTATATATTACAATCGTACAATATATATATATATA [XGTACX_site6730] | 9.15

Sequence | gcPBM binding intensity (ln)
AATTGATACCTTACATGTACATAATATATATAAATA [XGTACX_site321] | 7.23
TTTTTACATACAAATTAACACACATATAGAAAAGAG [CACACA_site8570] | 7.08
GAACCATTTTTTGGTATACACACGTAATTATATAAT [CACACA_site8552] | 6.8
CCTTTATAAAAAAGTAGTACACAATGAATTTATAAT [XGTACX_site5523] | 6.63
CAATACTAATTGTATACACACAAAAATATACCATAT [CACACA_site3326] | 6.52
TCTTTTTTTACTTTCTTTTTTTTTTTTTTTTTTTTT [XGTACX_negctrl_site610] | 6.86
TGTTAATTAAAACATCATTAATATTATTAAAAATAC [XGTACX_negctrl_site509] | 6.26
TATATTAATTTATATCAACACACAAAATCAATATAC [CACACA_site8518] | 6.59
TTAGCTACACGCTAATGTACACAAATACAAAGAAAA [XGTACX_site3993] | 6.58
TATACGCATATATAAACACACAAAAAAAAAAAAAAA [CACACA_site2026] | 6.33
ATAAAATATTATATATATATATATATATATATATAT [CACACA_negctrl_site215] | 9.37
AAGAATGTTATATTATGATGCTGTCTTTTTTTAAGA [CACACA_negctrl_site251] | 5.94
AATAAACATATATGTACACACATATACATATATATA [CACACA_site2848] | 6.62
TTTTTTTTTAATTATGCATGTAAATTATATATTATA [TGCATGCA_site335] | 6.35
TATTTATAATTAAATACACACATATATTATATATTT [CACACA_site616] | 6.6
TAATTTTTTTTATTATGTACTTAATAAATGTTAATT [XGTACX_site365] | 6.31
TATATTTATAGACACACACACAAAAAAAAAAAAAAA [CACACA_site6818] | 6.28
AAATTATTTATATGTTGTACTTATCCATTTTTATAA [XGTACX_site7441] | 6.56
ACATAAGATGAAAAATGTACATTCAAAAAATGAAAT [XGTACX_site3227] | 6.52
AAATTTCATGGGTATTGTACATAATTTTATTATATA [XGTACX_site4988] | 6.61
ACAAAACTGTCTTTCACACAGAAATAAAAAAAAAAA [CACACA_site5829] | 6.11
TGATAAGGATGTGAATTACTCAAAGGAAGTAATCAT [CACACA_negctrl_site1432] | 6.15

Sequence | gcPBM binding intensity (ln)
ATTTTATTTTCATATGAACACACATATATATATTAT [CACACA_site8741] | 7.61
AACAACCAAAGGCACACACACAAAAAAAAAAATATA [CACACA_site399] | 6.55
CTGCGTTTAATATGCGTGCACCTTGGTTTTATATCT [GTGCAC_site9525] | 8.8
TTTTAAATATGCCATACACACTACTATATAATAAAT [CACACA_site5119] | 6.74
TGTTGTATTGAAGCTAAAAAATGAGGCAAAAAAAAA [CACACA_negctrl_site1189] | 6.67
TTTATATAATATAAATTTTTTTTGCAGTAATAAAAA [TGCATGCA_negctrl_site570] | 6.37
ACTTCAAAAAAAAAAAAATATATATATATATATTAT [GTGCAC_negctrl_site158] | 6.46
ATTTATGAGTAATACACACACTTGTGGATATATTAC [CACACA_site7735] | 6.89
TTATACACAAAAAAAAAAATATATATATATATATAT [XGTACX_negctrl_site5] | 9.52
TATATATATGTATGTGGTACTTATATTATATACATA [XGTACX_site4550] | 6.27
TATTTACACCCATGCGCACACATAAATAAATAATAG [CACACA_site5350] | 7.91
CCATGTAGTGAATAGGTGCATATCAAAAAAAAAAAA | 8.24
ATACATATGGTGGATCGTACATATATATAATATGTA [XGTACX_site8631] | 6.5
ACAGAAAATAAAATTTGTACATATATAGAATAAAGA [XGTACX_site3014] | 6.59
TAAATATCAAGACACACACACAAAAGTGAATAAATA [CACACA_site7723] | 6.61
AGATATTATTTATATATTTATATATATATATAGATA [TGCATGCA_negctrl_site77] | 6.23
AGAGAAAAAAAAAATTGTACGTATGTAATAATATGC [XGTACX_site2981] | 6.88
AAAGTAAAAGAAAGCACACACACATGGATTTATGTA [CACACA_site5997] | 6.55
TTCTTTTTAAATTACACACACATATATATATGTATA [CACACA_site3515] | 7.15
ATTATTTATTATTTCTGTACGTATAAAAATAACATT [XGTACX_site1671] | 6.67
ATAAAACATAAAAATCGTACAAAGGAGGATATAAGG [XGTACX_site420] | 7.27
AAAATGATGTTAATTACACACATCATCTCATAAACA [CACACA_site3017] | 6.23

Sequence | gcPBM binding intensity (ln)
TGGAGGTCAGTTCACAGTACCCAGAAAACTCTACGA [XGTACX_site2561] | 5.7
CTTTTAATGGTGTAAAGTACTTTCTTAAGGTTCAAA [XGTACX_site8423] | 6.44
TTTAATTATTAAATGGTGCACTTGAAATATAAAAAT | 10.1
ATATATGGGGCGCAGGAAAAGAGTTTTGGAAATAAA [CACACA_negctrl_site1265] | 6.53
AAGTTATATAAAGGAACACACATTTGATTTTATTTT [CACACA_site6814] | 6.31
TATACAACGTTAAGCACACACAAAAAAAATTTAATA [CACACA_site3086] | 6.67
TAACATTATATATATTGTACATAGTAAATATTATAT [XGTACX_site5421] | 6.15
ATTTAAATTATAAAATGTACATTTAACAAATTTTAT [XGTACX_site770] | 6.34
TGTAATCTGGAGAAAAGTACACAGTATCTGGTAGCT [XGTACX_site2039] | 5.84
AAAAAAAAAAAGAAGGAAACATTTGACCAAAAATAT [GTGCAC_negctrl_site404] | 6.48
ATTCTATACATATATATACACACGTAGTTTCTATTT [CACACA_site2223] | 6.72
GTTAATATACTTAATACACACACGAATATATATAAA [CACACA_site1181] | 6.95
AAAGTAAAAAAAAAAACATGCACATATTTACTTTAT [TGCATGCA_site849] | 7.94
TTTTTTTTGGTTTTCATGCACACAATTTATAAATCT [CACACA_site3107] | 8.94
AAGGGAATATACCTTACACACAAAAATGCAGATATA [CACACA_site1451] | 6.42
CTAATCAAAATAAATTAACACACAATTTTAATATTG [CACACA_site7887] | 6.07
ATATACTTACATATTACACACAATATTTTTAAATGT [CACACA_site3627] | 6.83
AAAAAAAACACGCGCACACACACACCCACCCACCGA [CACACA_site2206] | 7.07
AAAAAAAAAAAAAAAACACACACATGCACATCATAT [CACACA_site8083] | 8.34
ACAAAATAAAACATCTGTACATATTATTATTATAAG [XGTACX_site4802] | 6.42
TATATTTATAACAACACACACAGATCATAAAACTGC [CACACA_site7086] | 6.84
ATTAGTATAATGTAACTTAGTTAATAGTGCTAATAT [CACACA_negctrl_site764] | 7.05
